Experimental data: the supplement of paper PMC11417369
The other results are listed elsewhere or left out.

Test system: PfSIP2 AP2 domain 1 (GST-tagged)
Assay: gcPBM binding intensity (ln(normalized median fluorescence intensity)); higher = stronger DNA binding
Outline: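 An Agilent 4 × 180k array of primer-extended double-stranded 36-bp intergenic genomic probes, with negative controls, was incubated for 1 h with GST-tagged P. falciparum DNA-binding domains expressed in E. coli. Alexa488 anti-GST antibody detected bound protein, scanned at 488 nm. Binding intensity is the highest Masliner-normalised natural-log median intensity across replicate spots of either probe orientation.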

Point of comparison: “TTTCTTTTTAACTCTTACATAATAGGTGGTAGAAGG [TGCATGCA_negctrl_site176]”, “gcPBM binding intensity (ln)” value 7.39. Against it:
- GTATATATCTCAGAGCATAATAGTATAATTCGGTCA [CACACA_negctrl_site876] — lower, 6.82
- AATTATTTTAGAAACACACAAATTAGAAAAAACATA [CACACA_site7673] — lower, 7.22
- AATATATATATAAATAGTACATATAAAGAGAATTTT [XGTACX_site3168] — lower, 7.12
- CAGAAATATTCTTATACACACTGTTCTTATATTCCT [CACACA_site4318] — lower, 6.92
- ATTAAAACAAAATGTACACACATATAATTTAATGAC [CACACA_site878] — lower, 7.11
- TTTATCTTTTTTTGTTGTACAGATGTTTATATTTTA [XGTACX_site4065] — lower, 7.13
- AATAACATTATTTTATGTACACATGAAAAATAAAAT [XGTACX_site4657] — lower, 7.24
- TGATATTTCATCATAGTGCAATATGGCATATAAATA [GTGCAC_site9433] — higher, 7.66
- AATATCAAAATAACATGTACATGTTATATTTTATTT [XGTACX_site5891] — lower, 6.9
- TGTAATAAACTACTTTTTTTTTTTTTTTTTTTTTTT [CACACA_negctrl_site1021] — higher, 8.45
- TTATTTATTTATTATAGTTCACTTGAAAATACAAGA [CACACA_negctrl_site1480] — lower, 6.88
- CATATATACAGTAACACACACAAAAAAATATGAATA [CACACA_site3996] — lower, 7.09
- TAATTTATAACACGCGCACACATATATATATAGTAA [CACACA_site121] — lower, 7.32
- AATAGTGTCATAAAAACTATTATCATATAATGTGAA [CACACA_negctrl_site1578] — lower, 6.83
- TTGTTGTGTATTATCGTGCACATAATATAAAAGATT — higher, 10.1
- AAAAAATATAAAAAAACACACAAAAAAAAAAAAAAA [CACACA_site1382] — lower, 6.77
- TTCTTAAAAAATCAAACACACATATATAAATACATA [CACACA_site5301] — lower, 7.03
- AAAGACGTTTATAAATGTACATACACTTTAAAAGTT [XGTACX_site8753] — lower, 7.02
- CCCCATTTATCTTAAGCATGCCATGGTTTTAGATAT [TGCATGCA_site24] — lower, 7.24
- ATAAAAAAAAAAAATACACACATATATATATATATA [CACACA_site1709] — higher, 9.45
- TTCTTAAATGTAAATGTATATGTATTAAAAAGAGAA [TGCATGCA_negctrl_site597] — lower, 7.23
- TTATAATATTAATGTGCACACAATTAAAATATTATA [CACACA_site2046] — higher, 9.4
- TACTGTGTTTTGGTTGTACACACGCTACATTATATA [CACACA_site8863] — lower, 7.21
